# From the supplement of paper PMC9433436
# ± gives the standard deviation of the averaged measurements. Whole data set: some 4,100 sequences, median “relative kcat/Km (krel) vs genomic leader AAAGAU” near 1.7, cut for the highest 2% near 6.5. The entries are a selection whose mix differs from that of the whole data set.
# Molecular target: T1, E. coli RNase P holoenzyme (M1 P RNA + rnpA protein) (UniProt P0A7Y8)
# T1 sequence: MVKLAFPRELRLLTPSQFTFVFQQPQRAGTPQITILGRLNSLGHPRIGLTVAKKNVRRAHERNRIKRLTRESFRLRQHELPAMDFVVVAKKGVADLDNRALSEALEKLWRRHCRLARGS
# Assay: relative kcat/Km (krel) vs genomic leader AAAGAU (relative (reference leader = 1)); higher = faster RNase P cleavage
# Description: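 HTS-Kin: a pool of ptRNA-Met (21C construct) with all 4096 combinations of 5' leader nucleotides N(-6) to N(-1) was processed in vitro by E. coli RNase P (P RNA + rnpA/C5 protein) under multiple-turnover conditions at 37 C, pH 8, 17.5 mM MgCl2. Residual substrate was Illumina-sequenced at several fractions reacted, and relative kcat/Km (krel) was computed by internal competition kinetics, calibrated to the genomic leader (AAAGAU = 1). The listed hexamer is the varied N(-6)..N(-1) leader (DNA letters), and it sits between a fixed 5' stem-loop flank (GCAUGCACGAAAGUGCGUGCUAUGAA) and the mature tRNA-Met starting GGCUACGUAGCUCAGUUGG. Two technical replicates are averaged.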
# [1] = fraction of substrate reacted: ~9-10% (9.79% repeat 1, 9.1% repeat 2)
# [2] = fraction of substrate reacted: ~13-16% (15.68% repeat 1, 13.17% repeat 2)
# [3] = fraction of substrate reacted: ~26-29% (28.66% repeat 1, 26.4% repeat 2)
Sequence,relative kcat/Km [1],relative kcat/Km [2],relative kcat/Km [3]
CAACCA,0.968 ± 0.62,0.886 ± 0.018,0.881 ± 0.39
CCTGTA,1.15 ± 1.1,1.34 ± 1.1,1.99 ± 1.1
GCCCGT,,,0.869 ± 0.63
AGCGCT,0.922 ± 0.52,0.773 ± 0.33,1.87 ± 0.74
GAGCAA,1.98 ± 0.29,2.27 ± 0.026,2.57 ± 0.78
TAACAG,,1.33 ± 0.61,2.19 ± 0.52
CCACAC,1.98 ± 0.78,2.63 ± 0.9,3.97 ± 1.5
CAGCAT,2.79 ± 1.3,3.37 ± 0.47,4.04 ± 1.4
ACCCTT,2.26 ± 0.4,2.25 ± 0.33,3.38 ± 1.4
TCGGCG,1.25 ± 0.93,,
GAAGTC,,1.09 ± 0.24,0.855 ± 0.63
GACCGC,2.62 ± 0.33,3.08 ± 1.4,5.26 ± 2.2
GAGAAA,2.38 ± 1.1,3.13 ± 0.99,3.4 ± 0.98
GTAAGG,,,0.965 ± 0.083
AGTGAC,1.67 ± 0.59,2.65 ± 1.3,3.45 ± 1.4
GGATGC,1.44 ± 0.27,1.71 ± 0.79,2.74 ± 1
TTCGAA,5.32 ± 1.2,7.22 ± 2.3,10.3 ± 4.3
CAAATC,1.67 ± 0.66,1.44 ± 0.26,1.67 ± 0.54
GCTCTC,1.58 ± 1.2,1.69 ± 0.14,1.93 ± 0.024
TCCCCG,1.54 ± 1.4,0.526 ± 0.42,2.17 ± 0.62
AAAACC,1.57 ± 0.47,1.42 ± 0.68,0.978 ± 0.27
GTTGCG,,,0.902 ± 0.56

Sequence,relative kcat/Km [1],relative kcat/Km [2],relative kcat/Km [3]
GCCTGG,,,0.776 ± 0.2
AAGATG,,,0.939 ± 0.44
ACATTA,1.51 ± 1.3,1.66 ± 0.19,2.74 ± 1.1
CTCAAG,2.69 ± 2,2.93 ± 1.3,4.67 ± 1.1
GTGAGG,,,0.834 ± 0.13
CTCTTC,3.63 ± 0.69,4.38 ± 0.62,6.47 ± 2.3
TGTTAT,3.17 ± 1.4,4.69 ± 0.22,
TATGTC,1.94 ± 0.3,1.75 ± 0.14,2.41 ± 1.1
GCTCCT,2.17 ± 1.1,1.31 ± 0.57,1.49 ± 0.12
ACTGAA,2.28 ± 0.86,1.83 ± 0.063,2.09 ± 0.12
CTGTCT,1.75 ± 0.55,2.12 ± 0.53,2.34 ± 0.71
ACCACG,,0.663 ± 0.43,1.33 ± 0.36
AATCCT,1.63 ± 0.46,1.9 ± 0.52,2.2 ± 0.7
ACTACC,1.62 ± 1.1,0.947 ± 0.46,1.88 ± 0.055
CAATAG,1.79 ± 0.46,1.58 ± 0.064,2.76 ± 0.48
TTGGAG,,,0.381 ± 0.027
GGCCGG,,,0.66 ± 0.22
AACTGG,,,0.249 ± 0.046
AGACGC,2.54 ± 0.22,2.7 ± 0.34,4.01 ± 1.7
GCCCTT,2.48 ± 0.62,2.23 ± 0.29,4.09 ± 1.9
ACAATG,,0.703 ± 0.44,2.02 ± 0.15
CGCACG,0.959 ± 0.25,,1.17 ± 0.018

Sequence,relative kcat/Km [1],relative kcat/Km [2],relative kcat/Km [3]
TATAGA,2.61 ± 0.27,3.82 ± 1.1,5.64 ± 2.4
TACACT,2.89 ± 1.3,4.07 ± 0.56,5.85 ± 2.5
TCCACG,,1.5 ± 0.77,2.9 ± 0.35
ACACAA,,1.7 ± 0.61,2.33 ± 0.43
TACTCG,2.29 ± 0.9,2.27 ± 0.61,3.84 ± 1.7
ATGCGA,1.3 ± 0.25,1.14 ± 0.72,1.37 ± 0.057
TGTACT,1.27 ± 0.14,1.61 ± 0.24,3.19 ± 1.3
GTACGT,,,1.63 ± 1.3
CTGACT,,0.128 ± 0.089,0.932 ± 0.62
TCTAAC,2.88 ± 0.9,3.41 ± 0.69,3.99 ± 1.6
TCGCTA,,1.1 ± 0.44,2.01 ± 0.28
CCCGTC,2.457 ± 0.0044,3.23 ± 1.4,3.92 ± 1.5
CTGCGA,1.16 ± 0.17,0.694 ± 0.59,1.64 ± 0.035
GGGGAT,,,1.93 ± 1.9
TCGGGT,,,1.52 ± 1
GCTGTA,1.96 ± 0.28,1.45 ± 0.33,1.506 ± 0.011
GTTGCC,1.67 ± 1.3,1.04 ± 0.19,2.17 ± 0.34
GTCCTC,3.46 ± 0.61,4.33 ± 0.75,6.46 ± 3
ACGTTT,2.11 ± 0.72,2.51 ± 0.12,3.26 ± 1.3
CCACCC,2 ± 0.12,1.27 ± 0.51,2.49 ± 0.73
CCTAAC,2.27 ± 0.5,2.19 ± 0.88,3.39 ± 0.99
CTCCTA,1.73 ± 0.61,2.53 ± 0.85,4.44 ± 1.4

Sequence,relative kcat/Km [1],relative kcat/Km [2],relative kcat/Km [3]
TCACTG,,,1.24 ± 0.59
GTAAGC,1.54 ± 0.78,2.1 ± 0.22,2.53 ± 0.77
CGAGCG,,,0.514 ± 0.44
AGCAAA,2.66 ± 1.7,2.77 ± 0.46,3.99 ± 1.2
TCCTGT,,,2.18 ± 1.6
GTTGTA,1.0952 ± 0.00012,0.821 ± 0.1,1.42 ± 0.54
TGTGTC,1.59 ± 1.4,1.59 ± 0.53,1.11 ± 0.067
TGGCGA,0.674 ± 0.028,0.957 ± 0.27,1.62 ± 1
AGTACC,1.76 ± 0.33,2.32 ± 0.69,3.17 ± 0.87
CCCCAC,2.35 ± 1.6,2.96 ± 0.19,5.06 ± 1.8
TTGGGT,,,1.65 ± 1.2
TACGTC,2.61 ± 0.68,3.76 ± 0.72,4.86 ± 2
TGCCTC,1.86 ± 0.51,2.58 ± 0.92,3.4 ± 1.6
TCGTAG,1.32 ± 0.27,1.93 ± 0.13,3.82 ± 1.3
CGTAAT,1.92 ± 0.64,3.09 ± 0.92,5.4 ± 2.4
GAACCT,1.05 ± 0.64,1.65 ± 1.3,1.84 ± 0.97
GCCAGC,1.77 ± 0.65,2.1 ± 0.77,3.51 ± 0.92
CCAGTA,1.71 ± 0.98,0.789 ± 0.077,1.17 ± 0.046
TAAATA,2.08 ± 1.1,1.83 ± 0.52,2.27 ± 0.69
ACCTAT,3.74 ± 1.7,4.66 ± 0.24,6.39 ± 2.5
TGCACC,1.72 ± 0.76,1.14 ± 0.99,2.13 ± 1.4
TAGAGG,,0.616 ± 0.31,1.27 ± 0.33

Sequence,relative kcat/Km [1],relative kcat/Km [2],relative kcat/Km [3]
TAACTA,1.23 ± 0.79,,1.67 ± 0.25
TCTATG,,2.22 ± 0.12,4.13 ± 1.1
TAAGAT,1.677 ± 0.0069,2.11 ± 0.53,2.51 ± 1.3
CCGAAA,1.99 ± 0.6,1.29 ± 0.33,2.82 ± 0.4
TCAGAA,2.03 ± 0.55,2.39 ± 0.63,3.82 ± 1.2
ATACGG,,,0.673 ± 0.33
GCTCAG,,0.21 ± 0.1,0.872 ± 0.11
GATTGG,,,0.409 ± 0.2
CTAGGG,,,0.691 ± 0.037
TCACCT,2.64 ± 0.76,1.98 ± 0.59,2.58 ± 0.53
GGCACT,1.99 ± 1.6,1.75 ± 0.28,2.89 ± 1.2
CTCGGG,,,0.404 ± 0.11
CAGGTA,1.05 ± 0.58,1.11 ± 1.1,1.08 ± 0.73
GCTCCC,1.35 ± 1,0.482 ± 0.068,1.73 ± 0.085
AAAGTA,1.73 ± 0.85,0.873 ± 0.2,1.23 ± 0.47
GATTTA,1.88 ± 1,2.11 ± 0.066,2.67 ± 0.84
TTCTAG,4.08 ± 2.6,4.58 ± 0.56,7.01 ± 3.1
TCGCTC,3.14 ± 1.1,3.21 ± 1.3,4.37 ± 2.2
GCCCAT,3.07 ± 2.2,3.36 ± 0.14,5.4 ± 1.5
